Data from PubChem BioAssay AID2546 (National Center for Advancing Translational Sciences (NCATS), 2010).
The whole screen tested about 310,000 compounds, of which about 11,000 (3.5%) were called active. Inconclusive means that the source gave no clear call. Such entries were picked first, then a sample of the others. Calls follow the shape of the dose curve; as a rule, active = well fitted inhibition curve with a large enough effect; inconclusive = small, poorly fitted or top-dose-only effect, or effect the other way; inactive = flat fitted curve, though single readings scatter. Potencies of inconclusive entries are left out as doubtful fits.

Assay: VP16 counterscreen qHTS for inhibitors of ROR gamma transcriptional activity;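 also: Gal4-VP16 expression switched on by copper sulfate through the metallothionein promoter; nearly all actives have a fitted effect of over 50% in size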
Conditions: Drosophila S2 Gal4-VP16 UAS-luciferase, luminescence, 20 h; activity, negative = inhibition: at 53.6 µM (top of the series)
% is scaled to controls: 0 for no effect and ±100 for the full control effect; potency is read from the fitted curve at half-maximal effect; tags tell the direction and shape of the fitted curve.

| SMILES | Potency | activity, negative = inhibition |
| --- | --- | --- |
| Oc1oc(-c2ccccc2Br)nc1/C=N/c1ccccn1 | inconclusive [inhibitor, partial curve] | – |
| Cc1cc(C)cc(OCC(=O)N/N=C/c2ccco2)c1 | – | inactive: -10.6% |
| O=C(O)c1ccc2c(c1Nc1ccccc1)C(=O)c1ccccc1C2=O | – | inactive: -7.42% |
| Cc1ccc(NC(=O)CN(C)CC(=O)Nc2ccccc2Oc2ccccc2)cc1 | – | inactive: -1.18% |
| COc1ccc(C(=O)NC(=S)NCc2ccccc2)cc1OC | inconclusive [inhibitor, single point] | – |
| CCOc1ccc(S(=O)(=O)NCCC(=O)OC(C)C(=O)N2CCc3ccccc32)cc1 (stereo unspecified) | inconclusive [inhibitor, single point] | – |
| Cc1ccc(-n2nc(C)cc2Nc2ncc(Cl)cc2Cl)cc1 | inconclusive [inhibitor, single point] | – |
| Cc1ccc(NC(=O)c2ccc([N+](=O)[O-])cc2Cl)nc1 | inconclusive [activator, single point] | – |
| CCCCn1c(-c2cccc(C)c2)nc2cc3[nH]c(=O)c(C(C)C)nc3cc21 | inconclusive [inhibitor, single point] | – |
| CCC(C)C(NC(=O)C1CCC(C)CC1)C(=O)Nc1ccc(OC)cc1 (stereo unspecified) | – | inactive: 0.44% |
| Cc1cccc(-n2c(C)cc(/C=N\NC(=O)c3ccco3)c2C)c1 | inconclusive [activator, full curve] | – |
| COCCn1c(/C=C/c2ccccc2)nc2ccccc21 | inconclusive [inhibitor, single point] | – |
| CCOC(=O)c1ccc(NC(=S)N2CCN(CCN=CC3=C(O)CC(C)(C)CC3=O)CC2)cc1 | inconclusive [inhibitor, single point] | – |
| O=C(/C(=C/O)N=Nc1ccccc1)c1ccc(Cl)cc1 | inconclusive [inhibitor, single point] | – |
| CC(C)CO/N=C1/C[C@@H](O)[C@@H](O)[C@@H]2[C@@H]3C(=O)N(C4CCCCC4)C(=O)[C@H]3CC[C@H]12 | – | inactive: 6.5% [at 10 µM] |
| O=C(/C=C/c1ccc2c(c1)OCO2)Nc1cc(S(=O)(=O)N2CCOCC2)ccc1N1CCOCC1 | – | inactive: -20% |
| O=C1CSC(=S)N1/N=C/C=C/c1ccccc1 | inconclusive [inhibitor, single point] | – |
| CC1(C)Cc2c(sc3[nH]c(=S)n(Cc4ccco4)c(=O)c23)CO1 | active: 1.41 µM | – |
| Cc1cc(C)cc(-n2nnn(C3C/C(=N/NC(N)=S)C4OCC3O4)c2=S)c1 (stereo unspecified) | – | inactive: -0.54% |
| CC(=O)NCCc1nc2cc(NC(=O)c3ccccc3)ccc2n1C | – | inactive: -4.52% |
| Cc1ccc(OCC(=O)N2CCN(c3nnc(-c4ccc(C)cc4)c4ccccc34)CC2)cc1 | inconclusive [inhibitor, single point] | – |
| Cc1cc(C)cc(Oc2cc(NC(=O)c3cn(C)nc3C)cc([N+](=O)[O-])c2)c1 | active: 7.94 µM | – |
| Cc1ccc(N2C(=O)c3ccccc3C2O)nc1 (stereo unspecified) | inconclusive [inhibitor, partial curve, poor fit] | – |
| O=C(CC1(O)C(=O)N(Cc2ccc3c(c2)OCO3)c2ccccc21)c1ccccc1 (stereo unspecified) | – | inactive: 3.66% |

| SMILES | Potency | activity, negative = inhibition |
| --- | --- | --- |
| CCOc1cccc(CNc2ccc(O)cc2)c1OCc1ccc(Cl)cc1 | inconclusive [inhibitor, single point] | – |
| COc1cc(C(=O)NCC(=O)N/N=C/c2ccc(-c3cccc([N+](=O)[O-])c3)o2)cc(OC)c1OC | – | inactive: 1.3% |
| Cc1ccc(NC(=O)CSc2nnc(-c3cccnc3)n2-c2ccc(C)cc2)cc1 | inconclusive [inhibitor, single point] | – |
| Cc1cccc(-n2c(-c3csc(C(C)C)c3)n[nH]c2=S)c1 | inconclusive [inhibitor, full curve] | – |
| CC(=O)c1cccc(NC2c3ccccc3C(=O)N2Cc2ccco2)c1 (stereo unspecified) | inconclusive [inhibitor, single point] | – |
| O=c1c2ccccc2nnn1CSc1ccccc1F | inconclusive [inhibitor, single point] | – |
| COC(=O)c1ccc(C(NC(=O)OCc2ccccc2)/C(=C/[C@@H](C)C(=O)NCc2ccc(-c3ccccc3)cc2)c2cccnc2)cc1 (stereo partly specified) | – | inactive: 2.09% |
| Nc1ccc(S(=O)(=O)Nc2cccc3cccnc23)cc1 | active: 11.2 µM | – |
| Cc1cc(N/N=C/c2ccc(N(C)C)cc2)c2ccccc2n1 | inconclusive [inhibitor, single point] | – |
| CCOC(=O)c1ccc(N2C(=O)CC(NC3CCN(C(=O)c4cccc(Cl)c4)CC3)C2=O)cc1 (stereo unspecified) | inconclusive [activator, partial curve, poor fit] | – |
| Cc1cccn2c(=O)c(/C=C(\C#N)S(=O)(=O)c3ccccc3)c(N3CCN(Cc4ccccc4)CC3)nc12 | inconclusive [inhibitor, single point] | – |
| CNC(=O)C1CCN(S(=O)(=O)c2c(C)noc2/C=C/c2ccccc2F)CC1 | – | inactive: -0.389% |
| O=S(=O)(Nc1ccc2c(c1)OCCO2)c1cccc2nsnc12 | – | inactive: -8.13% |
| COc1cc(/C=c2/sc3nc(-c4ccccc4)c(-c4ccccc4)n3c2=O)cc(OC)c1OC | – | inactive: -5.43% |
| O=C(c1cc(COc2c(F)cccc2F)on1)N1CCC(c2ccncc2)CC1 | inconclusive [inhibitor, single point] | – |
| CCN(CC)CCOCCOc1cc(C)c(Cl)c(C)c1 | – | inactive: -3.36% |
| COc1ccc(CNCC(O)(c2ccc(Cl)cc2)c2ccc(Cl)cc2)cc1 | inconclusive [inhibitor, single point] | – |
| CCCC1([C@H](O)C/C=C/[C@H]2[C@H](O)CC(=O)[C@@H]2CCCCCCC(=O)OC)CCC1 | inconclusive [inhibitor, single point] | – |
| O=C(N/N=C/c1cc(Br)ccc1O)c1ccncc1 | inconclusive [inhibitor, full curve] | – |
| O=C(C[n+]1ccccc1)Nc1c(Cl)cc(Cl)cc1Cl | inconclusive [inhibitor, single point] | – |
| CNC(=O)c1c(NC(=O)c2ccc(S(=O)(=O)N(C)c3ccccc3)cc2)sc2c1CCN(C(C)C)C2 | inconclusive [inhibitor, single point] | – |
| O=C(Nc1nccs1)c1ccc(Br)cc1 | inconclusive [inhibitor, single point] | – |
| N#Cc1c(NC(=S)NC(=O)Cc2cccs2)sc2c1CCCCC2 | active: 15.8 µM | – |
| C/C(=N\NC(=S)NC(C)C)c1ccc(Cl)s1 | inconclusive [inhibitor, full curve] | – |

| SMILES | Potency | activity, negative = inhibition |
| --- | --- | --- |
| CC(C)c1ccc[n+](-c2nc([O-])sc2C=O)c1 | – | inactive: 0.828% |
| Cc1cnn(CCC(=O)NNC(=S)Nc2ccccc2)c1 | active: 1.12 µM | – |
| CCOCCn1c(=NC(=O)c2cc(Cl)sc2Cl)sc2cc(S(N)(=O)=O)ccc21 | inconclusive [inhibitor, single point] | – |
| C=CCNc1ncnc2c1[nH]c1ccc(C)cc12 | inconclusive [inhibitor, single point] | – |
| Cc1ccccc1-c1noc(-c2ccccc2C(=O)NCc2ccco2)n1 | – | inactive: 1.89% |
| Cc1nn(-c2ccccc2)c(C)c1N | inconclusive [activator, partial curve] | – |
| CCOCCCNC(=O)c1cc2c(=O)n3cccc(C)c3nc2n1C | – | inactive: 8.36% |
| CN1CCN(CC(=O)Nc2nc(-c3ccccc3)cs2)CC1 | – | inactive: 3.85% |
| CC(=O)c1cc2c(cc1O)OC(C)(C)C=C2 | inconclusive [activator, single point] | – |
| O=C(CSc1nc(-c2ccco2)cc(C(F)(F)F)n1)N1CCN(c2ccc(Cl)cc2)CC1 | – | inactive: -7.34% |
| O=C(/C=C/c1ccc(F)cc1)c1ccc(N2CCOCC2)cc1 | – | inactive: -22.2% |
| O=[N+]([O-])c1ccc(/C([O-])=C(/C(=S)NCc2ccco2)[n+]2ccccc2)cc1 | – | inactive: -0.433% |
| Cc1c(CN2CCC(CO)(CCOc3ccccc3)CC2)[nH]c2ccc(Cl)cc12 | inconclusive [inhibitor, single point] | – |
| COc1ccc(N2CCN(S(=O)(=O)c3ccc(-c4cnc(C5CC5)o4)cc3)CC2)cc1 | inconclusive [inhibitor, single point] | – |
| COc1ccc(-c2c(-c3ccccc3)c(C(=O)C(=O)NCCCN(C)C)n3ccc4cc(OC)c(OC)cc4c23)cc1OC | inconclusive [inhibitor, single point] | – |
| COc1ccc(Cl)cc1NC(=O)c1noc(C)c1[N+](=O)[O-] | inconclusive [inhibitor, single point] | – |
| CCC1=NN2C(=N)/C(=C/c3c(C)nn(-c4ccccc4)c3Cl)C(=O)N=C2S1 | inconclusive [inhibitor, single point] | – |
| N#C/C(=C\c1ccc(O)c([N+](=O)[O-])c1)c1nc2ccccc2s1 | inconclusive [inhibitor, single point] | – |
| Cc1sc(=NC(=O)c2ccco2)n(C)c1-c1ccccc1 | inconclusive [inhibitor, partial curve] | – |
| C=CCNc1oc(-c2cccs2)nc1S(=O)(=O)c1ccccc1 | – | inactive: 0.391% |
| Fc1ccc(-n2c(=S)[nH]c3cccnc32)cc1 | inconclusive [inhibitor, single point] | – |
| CC(C)(C)c1ccc(C(=O)/C=C2\NC(=O)CS2)cc1 | active: 10 µM | – |
| CC1=C(C#N)c2nc(N)c(C#N)c(C)c2/C1=C\c1ccc(C)cc1 | inconclusive [inhibitor, single point] | – |
